In the RNAGym collection of RNA variant scans (doi:10.1073/pnas.2313332121):
Variants at the background level are over-represented here.

B1: TPR 5TU (parent)
chain: GGAUCUUCUCGAUCUAACAAAAAAGACAAAUCUGCCACAAAGCUUGAGAGCAUCUUCGGAUGCAGAGGCGGCAGCCUUCGGUGGCGCGAUAGCGCCAACGUUCUCAACUAUGACACGCAAAACGCGUGCUCCGUUGAAUGGAGUUUAUCAUG

Variants of: B1
Assay: polymerase ribozyme fitness, log enrichment relative to wild type (log ratio); higher = more active; in vitro selection for triplet polymerase activity
Outline: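 One round of in vitro selection, in triplicate, was applied to PCR-built, transcribed mutant libraries of each subunit of a heterodimeric triplet polymerase ribozyme. The steps were annealing with a biotinylated primer, partner subunit and triplets, incubation frozen at −7 °C, gel excision of extended constructs, streptavidin-bead capture and RT-PCR. Fitness is the logarithm, base 2, of genotype enrichment over wild-type enrichment from inverse-variance-weighted replicate averages of Illumina-sequenced inputs and outputs, keeping genotypes with ≥10 input reads and ≥1 read per output.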

Polymerase ribozyme fitness (log ratio), ≤ -4.2:
GGAUCUUCUAGAUCUAACAAAAAAGACAAAUCUGCCACAAAACUUGCGAGCAACUUCGGAUGCAGAGGCGGCAGCCUUCGGUGGCGCGAUAGCGCGAACGUUCUCAAAUAUGACACGCAAAACGCGUGCUCCCUUGAAUGGAGUUUAUCAUG
GGAUCUUCUAGAUCUAACAAAAAAGACAAAUCUGCCACAAAGAUUGAGAGCAUCUUCGGAUGCAGAGGCGGCAGCAUUAGGUGGCGCGAUAGCGCCAACGAUCUCAACUAUGACACGCAAAACGCGUGCUCCGUUGAAUGGAGGUUAUCAUG
GGAUCUUCUAGAUCUAACAAAAAAGACAAAUUUGCCACAAAGCUUGAGACCAUCGUCGGAUGCAGAGGCGGCAUCCUUCGGUGGCGCGAUAGCGCCAACGUUCUCAACUAUGACACGCAAAACGCGUGCUCCGUUAAAUGGAGUUUAUCAGG
GGAUCUUCUAGAUCUAACAAAAAAGACAAAUCUGCCACAAAGCUUGAGAGCAUCUUCGGAUGCAGAGGCGGCAGCCUUCGGUGGCGCGAUAGCGUCAACGUUCUCAACUAUGACAGGCAAAACGCGUGCUCCUUUGAAUGGAGUUUAUCAUG
GGAUCUUCUAGAUCUAACAAAAAAUACCAAUCUGCCACAAAGCUUGAGAGCUUCUUCGGAUGCAGAGACGGCAGCCUUCGGUGGCGACAUAGCGCGAACGUUCUCAACUAUGACACGCAAAACGCGUGCUCCGUUGAAUGGAGUUUAUCAUU
GGAUCUUCUAGAUCUAACAAAAAAGACAAAUCUUCCACAAAGCUUGAGAGCAUCUUUGGAUGCAGAGGCGGCAGCUUUCGGUGGCGCGAUAGCGGCAACGUUCUCAACUAUGACAGGCAAAACGCGUGCUCCGUUGAAUGGAGUUUAUCAUG
GGAUCUUCUAGAUCUAACAAAAAAGACAAAUCUGCCACAAAGCUUGAGAGCAUCUUCGGAUGCAGAGGCGGCAGCCUUCGGUGGCGCGGUAGCGCAAACGUGCUCAACUAUGACUCGCAACACGCGUGCUCCGUUGAAUGGAGUUUACCAUG
GGAUCUUCUAGAUCUAACAAAAAAGACAAAUCUGCCACAAAGCUUGAAAGCAUCAUCGCAUGCAGAGGCGGCAGCCUUCGGUGGGGCGAUAGCGCCAACGUUCUCAACUAUGACACGCAAAACGCGUGCUCCGUUGAAUGGAGUUUAUCAUG
GGAUCUUCUAGAUCUAACAAAAAAGACAAAUCUGCCACAAAGCUUUAGAGCAUCUUCGGAAGCAGAGGCGGCAGCCUUCGGUGGCGCGAUAGUGCCAACGUUCUCGACUAUGACACGCAAAACGCGUGCUCCGUUGAAUGGAGUUUAUCAUG
GGAUCUUCUAGAUCUAACAAAAAAGACAAAUCUGCCACAAAGCUUGACAGCAUCUUCGGAUGCAGAGGCGGCAGCCUUCGGGGGCGCGAUAGCGCCUACGUUCUCAACUAUGACACGCAAAACGCGUGCUCCGUUGAAUGGAGUUUAUCAUG
GGAUCUUCUAGAUCUAACAAAAAAGACAAAUCUGCCACAAAGCUUGAGAGCAUCUUCGGAUGCAGAGGCGGCAGCCUUCGGUGGGGCGAUAGCGCCAACGUUCUCAACUAUGACACGCAAAACGCGUGCUCCGUUGAAUGUAGUUUAUCAUG
GGAUCUUCUAGAUCUAACAAAAAAAACAACUCUGCCACAAAGCUUGAGAGCAUCUUCGGAUGCAGAGGCGGCAGCCUUCGGUGGCGCGAUAGUGCCAACGUUCUCAAUUAUGACACUCAAAACGCGUGCUCCGUUGAAUGGAGUUUAUCAUG
GGAUCUUCUAGAUCUAACAAAAAAGACAAAUCUGCCACAAACCUUGAGAGCUUCUUCGGAUGCAGAGGCGGCAGCCUUCGCUGGUGUGAUAGCGCCAACGUUCUUAACUAUGACACGGAAAACGCGUGCUCCGUUAUAUGGAGUUUAUCAUG
GGAUCUUCUAGAUCUAACAAAAAAGACAAAUCUGCCACAAAGCUUGAGAGCAUCUUCGGAUGCAGAGGCGGCAGUCUUCGGUGGCGCGAUGGCGCCAACGUUCUCAACUAUGACACGCAAAACGCGUGCUCCGUUGAAUGGAGGUUAUCAUG
GGAUCUUCUAGAUUUAACAAAAAAGACAAAUCUGCCACAAAGCUUGAGAGCAUCUUCGGAUGCAGAGGCGGCAGCCUUCGGUGGCACGAUAGCGCCAGCGUUCUCAACUAUGACACGCAAAACGCGUGAUCCGUUGAAUGGAGUUUAUCAUG
GGAUCUUCUAGAUCUAACAAAAAAGACAAAUCUUCCACAUAGCUUGAGAGCAUCUUUGGAUGCAGAGGCGGCAGCCUGUGGUGCAGCGAUAGCGCCAACGUUCACAACUAUGACACGCACAACGCGUGCUCCGUUGAAUGGAGUUUAUCAUG
GGAUCUUCUAGAUCUAACAAAAAAGACAAAUCUGCCACAAAGUUUGAGAGCCUCUUCGGAUGCAGAAGCGGCAGCCUCCGGUGGCGCGAUAGAGCCAACGUUCUCAGCUAUGACACGCAAAACGCGUGCUCCGUUGAAUGGCGUUUAUCAUG
GGAUCUUCUAGAUCUAACAAAAAAGACAAAUCUGCCACAAAGCUUGAGAGCAUCUUCGGAUGCAGAGGCGGCAGCCUUCGGUGGCGGCAUAGCGGCAACGUUCUCAACUAUGACACGCAAAACGCGUGCUCCGUUGAAUAGAGUUUAUCAUG
GGAUCUUCUAGAUCUAACAAAAAAGACAAAUCUGCCACAAAGCUUGAGAGCAUCUUCGGAUGCAGAGGCGGCAGCCUUCGGUGGAGCGAUAGCGCCAACGUUCUUAACUAUGACACGCAAAACGCGUGCUCCGUUGAAUGCAGUUUAUCAUG
